The chains are these.
B1: TPR 5TU (parent)
chain: GGAUCUUCUCGAUCUAACAAAAAAGACAAAUCUGCCACAAAGCUUGAGAGCAUCUUCGGAUGCAGAGGCGGCAGCCUUCGGUGGCGCGAUAGCGCCAACGUUCUCAACUAUGACACGCAAAACGCGUGCUCCGUUGAAUGGAGUUUAUCAUG

Variants at the floor of the assay are shown more often than the library holds them. A value given as a limit tells only on which side of the number the result lay.

Variants of B1 are the subject of the series. Put plainly: polymerase ribozyme fitness, log enrichment relative to wild type (log ratio); higher = more active; in vitro selection for triplet polymerase activity. In short, it runs like this:
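Mutant libraries of both subunits of a heterodimeric triplet polymerase ribozyme were PCR-built, transcribed, and selected once in triplicate, with frozen incubation at −7 °C and capture of gel-excised extended constructs on streptavidin beads before RT-PCR. Illumina sequencing of input and output libraries was filtered to genotypes with ≥10 input reads and ≥1 read per output. Fitness is the logarithm of genotype enrichment over wild-type enrichment, using inverse-variance-weighted replicate averages. The logarithm is base 2.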
C5G G34C C57U A66C C75U C95A C123A U134G G152A: the “polymerase ribozyme fitness (log ratio)” value is not above -4.2.

Regarding C5A G62A G74U A89U C93G A110G A120U C123U, the “polymerase ribozyme fitness (log ratio)” value was not above -4.2.

Consider C5A C10U A19G C75U C93A U102G, for which the “polymerase ribozyme fitness (log ratio)” value was not above -4.2.

As to C5A C57G C75U G86A A91C, the “polymerase ribozyme fitness (log ratio)” value is -4.01.

Consider C5G C8G C18U G68A A98U U104C U148G, for which the “polymerase ribozyme fitness (log ratio)” value was not above -4.2.

As for U4C U56G C63U C93G, the “polymerase ribozyme fitness (log ratio)” value is -3.11.

Consider C5A U13C C38U A121G U127C, for which the “polymerase ribozyme fitness (log ratio)” value is -4.07.

On to C5G C27A A49C C79A A91U C105A, for which the “polymerase ribozyme fitness (log ratio)” value was not above -4.2.

As to C5A G11C C85U A119C C131G G141C, the “polymerase ribozyme fitness (log ratio)” value is 0.451.

Regarding U4C U77G G83C A89U, the “polymerase ribozyme fitness (log ratio)” value was not above -4.2.

As to C5A A23C C27A C43A G50U C85U C118G, the “polymerase ribozyme fitness (log ratio)” value is not above -4.2.

On to U4G U13A A40U G58A G68U U78C C85U A107C, for which the “polymerase ribozyme fitness (log ratio)” value was not above -4.2.

Take C5G C51A C96G A107G: the “polymerase ribozyme fitness (log ratio)” value is not above -4.2.

Consider U4G G42A C54A G58C C93G G126A G140A, for which the “polymerase ribozyme fitness (log ratio)” value is not above -4.2.

C5A G46C U90A: the “polymerase ribozyme fitness (log ratio)” value was not above -4.2.

C5G A24C A28G G74A G81U C99G G128C: the “polymerase ribozyme fitness (log ratio)” value was not above -4.2.

For C5A A20C C96U, the “polymerase ribozyme fitness (log ratio)” value is -0.294.

Take C5G C14U A20U C27A A28U C72A C95U C132U: the “polymerase ribozyme fitness (log ratio)” value is not above -4.2.

For the variant C5G G34C C76A C85U C118U G140A, the “polymerase ribozyme fitness (log ratio)” value was not above -4.2.

On to U4G A12U U15G A21C C32U G86C U90G G117U, for which the “polymerase ribozyme fitness (log ratio)” value was not above -4.2.

With C5A A30U C51G U61A G86A C103G C129U G136U, the “polymerase ribozyme fitness (log ratio)” value is not above -4.2.

With U4G A12U A16C A23C C76G U82C C108A G143C U151G, the “polymerase ribozyme fitness (log ratio)” value was not above -4.2.

Take U4G A12U G84A G112A: the “polymerase ribozyme fitness (log ratio)” value was not above -4.2.

Consider C5G C35U G59C C87U G100U C125G G133A U145C, for which the “polymerase ribozyme fitness (log ratio)” value was not above -4.2.

With U4G A40C C51A A52C A107U U139G, the “polymerase ribozyme fitness (log ratio)” value was not above -4.2.

For the variant C5A C8G A17G A21U G25A C27G U134G C149G, the “polymerase ribozyme fitness (log ratio)” value was not above -4.2.

For the variant C5G A39C G59C C76A G88C C99A, the “polymerase ribozyme fitness (log ratio)” value is not above -4.2.

As for C5G A52G C87U C108G G117A, the “polymerase ribozyme fitness (log ratio)” value is not above -4.2.

As for C5G C8U A12U C27G G59C A66G U78C U101A C125G C131A U139C, the “polymerase ribozyme fitness (log ratio)” value is -3.97.

Turning to C5A A40U G70U C76G U146G, the “polymerase ribozyme fitness (log ratio)” value was not above -4.2.

U4G A73G A97G: the “polymerase ribozyme fitness (log ratio)” value is 0.0284.

With U4G A23G A40G G86C G92A C99G G126U G133A U146G, the “polymerase ribozyme fitness (log ratio)” value was not above -4.2.

U4G U15G A30G A41U G46U C69G C76U C93G G143C: the “polymerase ribozyme fitness (log ratio)” value is not above -4.2.

Turning to C5G C14A G42U U44A G83C C105G A106C U109G C132G, the “polymerase ribozyme fitness (log ratio)” value is not above -4.2.

Take C5G A16G C96A U148A: the “polymerase ribozyme fitness (log ratio)” value is not above -4.2.

Turning to C5G A21C C27A C38U C79A C87U, the “polymerase ribozyme fitness (log ratio)” value was not above -4.2.

Turning to C5G A41C G58U G59U A64C G74U C75U C85A C96G U144C, the “polymerase ribozyme fitness (log ratio)” value was not above -4.2.

C5A C27G A40G U56A C75G U77A A119U: the “polymerase ribozyme fitness (log ratio)” value is not above -4.2.

As for C5G A30U G59A C87G C108U U148A, the “polymerase ribozyme fitness (log ratio)” value was not above -4.2.

As for U4G C36A C87U, the “polymerase ribozyme fitness (log ratio)” value was not above -4.2.

Take C5A A17U G83A U146G: the “polymerase ribozyme fitness (log ratio)” value was -0.599.

Turning to C5G C18G C35U G46A C87G U101A C129A U134G, the “polymerase ribozyme fitness (log ratio)” value is not above -4.2.

In the case of C5A G46A U53A C93G U101C U109G G140C, the “polymerase ribozyme fitness (log ratio)” value was not above -4.2.

In the case of C5G A17G A24C C93G A107G C125A, the “polymerase ribozyme fitness (log ratio)” value is not above -4.2.

As for C5G C32A C76A U109G G141C, the “polymerase ribozyme fitness (log ratio)” value is not above -4.2.

With C5G A23C A52C G83C G117U, the “polymerase ribozyme fitness (log ratio)” value was not above -4.2.

On to C5G G58C A60G C63A C132U U135G, for which the “polymerase ribozyme fitness (log ratio)” value was not above -4.2.

For U4G A20G A37U C57A G65U G84A G100U G141U, the “polymerase ribozyme fitness (log ratio)” value is not above -4.2.

As to C5G C27G A29U A40C G67C C96U C149G, the “polymerase ribozyme fitness (log ratio)” value is not above -4.2.

As for U4G A29U G59C G62A A64G A66U C95G, the “polymerase ribozyme fitness (log ratio)” value was not above -4.2.

Turning to U4G A97G C103G, the “polymerase ribozyme fitness (log ratio)” value was -3.15.

As to U4C G92C U139A U148C A150U, the “polymerase ribozyme fitness (log ratio)” value was not above -4.2.

As to C5A G65C G74U C85G, the “polymerase ribozyme fitness (log ratio)” value was not above -4.2.

C5G A28U C69A G86A G141C: the “polymerase ribozyme fitness (log ratio)” value was not above -4.2.

For U4G A30G A66G C85U G140C, the “polymerase ribozyme fitness (log ratio)” value was not above -4.2.

Take U4G C35A A66G G74A G92A C116A G128U: the “polymerase ribozyme fitness (log ratio)” value is not above -4.2.

Regarding C5A C10U A41C A49C U139G U151G, the “polymerase ribozyme fitness (log ratio)” value was not above -4.2.

As for C5G C8A A19C C95U U102C, the “polymerase ribozyme fitness (log ratio)” value was not above -4.2.

With U4C U6G G74C G80C G92U C103G A106U, the “polymerase ribozyme fitness (log ratio)” value was not above -4.2.

Regarding C5A A16C A19U U61A, the “polymerase ribozyme fitness (log ratio)” value was -2.61.

Consider C5G A40C U45A C87G C105A A119G C125A U144A U145C, for which the “polymerase ribozyme fitness (log ratio)” value was not above -4.2.

Regarding C5G A16G A107C, the “polymerase ribozyme fitness (log ratio)” value is not above -4.2.

U4G A23C G42A A66G C93A A98G A137C: the “polymerase ribozyme fitness (log ratio)” value is not above -4.2.

Regarding C5G A26G C54U G83A, the “polymerase ribozyme fitness (log ratio)” value was not above -4.2.

For C5G G59C A89U G92A C93U C95A G143C, the “polymerase ribozyme fitness (log ratio)” value is not above -4.2.

C5A A24U U55A G92U C105U U139C: the “polymerase ribozyme fitness (log ratio)” value was not above -4.2.

Turning to C5A A23G G68U U78C A91C A110U, the “polymerase ribozyme fitness (log ratio)” value was not above -4.2.

For U4G C54A U61A A91U C95U A97G C103G, the “polymerase ribozyme fitness (log ratio)” value is not above -4.2.

For the variant C5A C54A C57A G58A G68A A89U C95G, the “polymerase ribozyme fitness (log ratio)” value is not above -4.2.

For U4G U15G A29U U55A C93G U145G, the “polymerase ribozyme fitness (log ratio)” value was not above -4.2.

For C5A C99U, the “polymerase ribozyme fitness (log ratio)” value was -0.267.

Take U4G G83C G140A U148A: the “polymerase ribozyme fitness (log ratio)” value is not above -4.2.

Take C5G C18G G65C A91C: the “polymerase ribozyme fitness (log ratio)” value was not above -4.2.

As to C5G A28U A29G A49C G50U C96U C123A G152U, the “polymerase ribozyme fitness (log ratio)” value was not above -4.2.

Take U4G G42A G88U A91G C103G C114U: the “polymerase ribozyme fitness (log ratio)” value was not above -4.2.

As for C5A A52U A138G, the “polymerase ribozyme fitness (log ratio)” value was not above -4.2.

Regarding C5G G42A C87A C99U C108A U151G, the “polymerase ribozyme fitness (log ratio)” value was not above -4.2.

In the case of U4G A28G G84A A147C, the “polymerase ribozyme fitness (log ratio)” value was not above -4.2.

On to C5A A16C A21U A24C C27G A28G C51U C76A C114U U139A, for which the “polymerase ribozyme fitness (log ratio)” value is not above -4.2.

Take U4G A52C G83A: the “polymerase ribozyme fitness (log ratio)” value was -2.69.

For the variant C5A A19U C51G A73G A138C, the “polymerase ribozyme fitness (log ratio)” value is not above -4.2.

As for C5G A21G U44A G83C C103G, the “polymerase ribozyme fitness (log ratio)” value is not above -4.2.

As for C5A A20C C32U A49U A91G C108G A121U, the “polymerase ribozyme fitness (log ratio)” value was not above -4.2.

For the origin of these results see the RNAGym collection of RNA variant scans (doi:10.1073/pnas.2313332121).
